± gives the standard deviation of the averaged measurements. Some of the results follow.
Each sequence was assayed on PfAP2-EXP AP2 domain (GST-tagged) (assay: gcPBM binding intensity (ln(normalized median fluorescence intensity)); higher = stronger DNA binding).
Summary of the method: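 For binding intensity, the highest Masliner-normalised natural-log median intensity across replicate spots of either probe orientation was taken. Protein bound to the array was stained with Alexa488 anti-GST antibody and scanned at 488 nm. The protein, GST-tagged P. falciparum DNA-binding domains from E. coli at about 25 μg on average, had been applied for 1 h to an Agilent 4 × 180k array of primer-extended double-stranded 36-bp intergenic genomic probes and negative controls.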
In the case of “TTCTGAACAAAATTATATATTTATTTTTATTTTCAT [CACACA_negctrl_site422]”, the “gcPBM binding intensity (ln)” value is reported as 8.35 ± 0.41. For “ATTATTTTTCTATGTGTGCACGTGTGGAATGTGTCT [GTGCAC_site9507]”, the “gcPBM binding intensity (ln)” value was 8.98 ± 0.17. “CATTATGTCATAAATGCACACATATACATTGTTTTG [CACACA_site8118]” was tested, and the “gcPBM binding intensity (ln)” value was 8.99 ± 0.071. For “AATAAATTATTTATTGCATGTAATATGAATATTTTT [TGCATGCA_site798]”, the “gcPBM binding intensity (ln)” value was 8.75 ± 0.11. With “ATATATTTTATTCCTATATATATATATATATATATA [GTGCAC_negctrl_site556]” the “gcPBM binding intensity (ln)” value was 10.2 ± 0.49. In the case of “TAATGTATGAAATAAACACACAAGTAAGTACATAAA [CACACA_site2451]”, the “gcPBM binding intensity (ln)” value is reported as 8.87 ± 0.31. For “TCTGTAGTTTTTTACAGTACTTTTAGGTAATACATA [XGTACX_site7417]”, the “gcPBM binding intensity (ln)” value was 8.38 ± 0.33. With “AAAACACCCAAACACACACACACATATATATATATA [CACACA_site9119]” the “gcPBM binding intensity (ln)” value was 10.1 ± 0.3. For “TTCTTGTATTTTCATAGTACATATAATGTCGTGTTA [XGTACX_site7714]”, the “gcPBM binding intensity (ln)” value was 8.72 ± 0.3. In the case of “TACATAGAGTTTGTTTGTACTCATATGCGTAAATTC [XGTACX_site4810]”, the “gcPBM binding intensity (ln)” value is reported as 8.49 ± 0.23. With “ACCTCTTTGAAATATACACACTAAACATATCAACTT [CACACA_site5372]” the “gcPBM binding intensity (ln)” value was 8.87 ± 0.52. With “AGAAAAAAAATATACACACATACGATCATACATATG [CACACA_site2171]” the “gcPBM binding intensity (ln)” value was 8.61 ± 0.64. For “ATTTTTTCTGTCTTAATTGGACCCACTGCAAATGGG [CACACA_negctrl_site1158]”, the “gcPBM binding intensity (ln)” value was 8.54 ± 0.47. With “ATAATACAAAAAAAAAAAAAAAATAAAATAATAAAA [GTGCAC_negctrl_site722]” the “gcPBM binding intensity (ln)” value was 8.13 ± 0.51. For “TTATAGCCTGTGAAGAGTACATTTTTATTTTTTATT [XGTACX_site4105]”, the “gcPBM binding intensity (ln)” value was 8.51 ± 0.44. “TACCTAAATAAATGGACACACACATATATATATATA [CACACA_site8407]” was tested, and the “gcPBM binding intensity (ln)” value was 10.1 ± 0.3. With “AAGTAATACAACACGCACATATATATATATATATAT [GTGCAC_negctrl_site89]” the “gcPBM binding intensity (ln)” value was 10.3 ± 0.3. With “TATTTTTAAATATAAAGTACTTATATTAACTACGAA [XGTACX_site1524]” the “gcPBM binding intensity (ln)” value was 8.27 ± 0.29. With “TTTACGCTATAGGAGAGTACTTATAAAATCCTGTGT [XGTACX_site2364]” the “gcPBM binding intensity (ln)” value was 8.51 ± 0.36. “TTCATATATTTTAAAGCATGCATTCATCTTATAGTT [TGCATGCA_site800]” was tested, and the “gcPBM binding intensity (ln)” value was 9.17 ± 0.28. In the case of “AGACGAAAATAATAAAGTACTAAAAAAAAAAAAAAA [XGTACX_site927]”, the “gcPBM binding intensity (ln)” value is reported as 8.14 ± 0.51. With “TATTTTTCCATTGGGGGTACATGTGTTATATTTATT [XGTACX_site5914]” the “gcPBM binding intensity (ln)” value was 10.4 ± 0.76. For “TACAAAATATATATGACACACACAAAAAAAGTATAT [CACACA_site8455]”, the “gcPBM binding intensity (ln)” value was 8.79 ± 0.49. With “ATATATATGCATATATGTACTTAAAATATAAAGGCA [XGTACX_site3256]” the “gcPBM binding intensity (ln)” value was 8.64 ± 0.29. “GTATACCAACATATTATACACACCTTTATATTTTTT [CACACA_site2153]” was tested, and the “gcPBM binding intensity (ln)” value was 8.62 ± 0.39. In the case of “TTGTATACATAAAATGGTACAGAATATATAATTCTA [XGTACX_site7236]”, the “gcPBM binding intensity (ln)” value is reported as 8.46 ± 0.28. In the case of “ATAAGATGATGGAACTGTAATATATATATATATATA [CACACA_negctrl_site839]”, the “gcPBM binding intensity (ln)” value is reported as 10 ± 0.5. With “TTTAAGAGTTGCACACGTACAAAAAAAAAAAAAAAA [XGTACX_site7406]” the “gcPBM binding intensity (ln)” value was 8.57 ± 0.15. In the case of “ATTACATGTTACTTAACACACATCTGGTGAAATAAT [CACACA_site171]”, the “gcPBM binding intensity (ln)” value is reported as 8.63 ± 0.42. In the case of “TTAATTAAAATTTATACATGCATAAAAGAAATACAC [TGCATGCA_site537]”, the “gcPBM binding intensity (ln)” value is reported as 9.36 ± 0.35. “GTAATGAAACATTGCACACATATAATAATATAATAT [CACACA_site1422]” was tested, and the “gcPBM binding intensity (ln)” value was 8.63 ± 0.38. “ATTTTTTTCTTTTCTTTTTTCTTTTTTTTTTTTGGT [CACACA_negctrl_site1146]” was tested, and the “gcPBM binding intensity (ln)” value was 8.35 ± 0.61. With “TTATACTGTTTCAGAAAAATAAAGAATGAAAGTATT [XGTACX_negctrl_site230]” the “gcPBM binding intensity (ln)” value was 8.73 ± 0.31. For “TTTTTATATTCCCCCAGTACATATATAATAGTAGTA [XGTACX_site7927]”, the “gcPBM binding intensity (ln)” value was 10 ± 0.3. With “AATAAAAAAATAAAATGTACATACAAATAAATAAAT [XGTACX_site5153]” the “gcPBM binding intensity (ln)” value was 8.89 ± 0.3. With “TGCAACAAAATAAACACACACACACCCCCACAAAAA [CACACA_site3388]” the “gcPBM binding intensity (ln)” value was 9.78 ± 0.54. “TATTTTAATGAAGCATTTAAGGGAAAAAAAAAAAAA [TGCATGCA_negctrl_site606]” was tested, and the “gcPBM binding intensity (ln)” value was 8.4 ± 0.59. “TTCATTTTAATTTCCAGTACACATATATATACATAT [XGTACX_site558]” was tested, and the “gcPBM binding intensity (ln)” value was 8.79 ± 0.38. With “ATGTCATAAATGTACGCACACATACATAAACATATA [CACACA_site4530]” the “gcPBM binding intensity (ln)” value was 8.715 ± 0.064. With “ATTTATTTCTATAATACACACAAATATCTTAATTAA [CACACA_site7801]” the “gcPBM binding intensity (ln)” value was 8.19 ± 0.35. With “AATATAATACAATATTGTACATAATATAAATTAAAA [XGTACX_site4064]” the “gcPBM binding intensity (ln)” value was 8.46 ± 0.37. For ATTATATTTATGTTGGTGCATTATACATGAAATTTA, the “gcPBM binding intensity (ln)” value was 9.36 ± 0.57. In the case of “TATATGTTATATTGGACACACACAATAAACATTATG [CACACA_site8480]”, the “gcPBM binding intensity (ln)” value is reported as 8.57 ± 0.49. With “AAACATAAAGAAAAAAAAAATATATATTTATTTATT [GTGCAC_negctrl_site357]” the “gcPBM binding intensity (ln)” value was 8.32 ± 0.33.

Reference: the supplement of paper PMC11417369
